This continues a long series; more values of the same kind are listed elsewhere. Toxic doses and inconclusive results are not listed.
Tested on: CD2F1 mice, L1210 leukemia ip, survival T/C
Experiment: NCI In Vivo Anticancer Drug Screen. Data for tumor model L1210 Leukemia (intraperitoneal) in CD2F1 (CDF1) mice
Conditions: higher = longer survival
Method in brief: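 Compound-dosed mice with transplantable tumor versus matched vehicle controls; endpoint ratio T/C reported.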

COc1cc(NS(C)(=O)=O)ccc1Nc1c2ccccc2nc2ccccc12
T/C (endpoint: mean survival time, dose: 0.11 mg/kg/injection, schedule: Q01DX009 (ip), vehicle: saline with Tween-80): 100 % of control
T/C (endpoint: mean survival time, dose: 0.16 mg/kg/injection, schedule: Q01DX009 (ip), vehicle: saline with Tween-80): 105 % of control
T/C (endpoint: mean survival time, dose: 1.0 mg/kg/injection, schedule: Q01DX009 (sc), vehicle: saline): 108 % of control
T/C (endpoint: mean survival time, dose: 1.0 mg/kg/injection, schedule: Q03HX016 (ip), vehicle: saline): 152 % of control
T/C (endpoint: mean survival time, dose: 2.0 mg/kg/injection, schedule: Q01DX009 (sc), vehicle: saline): 113 % of control
T/C (endpoint: mean survival time, dose: 2.0 mg/kg/injection, schedule: Q03HX008 (ip), vehicle: saline): 155 % of control
T/C (endpoint: mean survival time, dose: 2.0 mg/kg/injection, schedule: Q03HX016 (ip), vehicle: saline): 212 % of control
T/C (endpoint: mean survival time, dose: 4.0 mg/kg/injection, schedule: Q01DX009 (ip), vehicle: saline): 152 % of control
T/C (endpoint: mean survival time, dose: 4.0 mg/kg/injection, schedule: Q01DX009 (oral), vehicle: saline): 105 % of control
T/C (endpoint: mean survival time, dose: 4.0 mg/kg/injection, schedule: Q03HX008 (ip), vehicle: saline): 210 % of control
T/C (endpoint: mean survival time, dose: 4.0 mg/kg/injection, schedule: Q03HX016 (ip), vehicle: saline): 249 % of control
T/C (endpoint: mean survival time, dose: 4.0 mg/kg/injection, schedule: Q03HX024 (ip), vehicle: saline): 86 % of control
T/C (endpoint: mean survival time, dose: 6.25 mg/kg/injection, schedule: Q01DX001 (ip), vehicle: Klucel (hydroxypropylcellulose) (HPC)): 120 % of control
T/C (endpoint: mean survival time, dose: 7.5 mg/kg/injection, schedule: Q01DX009 (ip), vehicle: Klucel (hydroxypropylcellulose) (HPC)): 118 % of control
T/C (endpoint: mean survival time, dose: 8.0 mg/kg/injection, schedule: Q01DX001 (sc), vehicle: saline): 104 % of control
T/C (endpoint: mean survival time, dose: 8.0 mg/kg/injection, schedule: Q01DX009 (oral), vehicle: saline): 112 % of control
T/C (endpoint: mean survival time, dose: 8.0 mg/kg/injection, schedule: Q01DX009 (sc), vehicle: saline): 124 % of control
T/C (endpoint: mean survival time, dose: 15.0 mg/kg/injection, schedule: Q01DX001 (ip), vehicle: Klucel (hydroxypropylcellulose) (HPC)): 124 % of control
T/C (endpoint: mean survival time, dose: 15.0 mg/kg/injection, schedule: Q01DX009 (ip), vehicle: Klucel (hydroxypropylcellulose) (HPC)): 101 % of control
T/C (endpoint: mean survival time, dose: 16.0 mg/kg/injection, schedule: Q01DX001 (sc), vehicle: saline): 116 % of control
T/C (endpoint: mean survival time, dose: 16.0 mg/kg/injection, schedule: Q01DX009 (oral), vehicle: saline): 113 % of control
T/C (endpoint: mean survival time, dose: 16.0 mg/kg/injection, schedule: Q01DX009 (sc), vehicle: saline): 109 % of control
T/C (endpoint: mean survival time, dose: 16.0 mg/kg/injection, schedule: Q04DX003 (ip), vehicle: saline): 168 % of control
T/C (endpoint: mean survival time, dose: 16.0 mg/kg/injection, schedule: Q08DX002 (ip), vehicle: saline): 151 % of control
T/C (endpoint: mean survival time, dose: 32.0 mg/kg/injection, schedule: Q01DX001 (ip), vehicle: saline): 158 % of control
T/C (endpoint: mean survival time, dose: 32.0 mg/kg/injection, schedule: Q01DX001 (oral), vehicle: saline): 106 % of control
T/C (endpoint: mean survival time, dose: 32.0 mg/kg/injection, schedule: Q01DX001 (sc), vehicle: saline): 120 % of control
T/C (endpoint: mean survival time, dose: 32.0 mg/kg/injection, schedule: Q08DX002 (ip), vehicle: saline): 158 % of control
T/C (endpoint: mean survival time, dose: 60.0 mg/kg/injection, schedule: Q01DX001 (ip), vehicle: Klucel (hydroxypropylcellulose) (HPC)): 245 % of control
T/C (endpoint: mean survival time, dose: 60.0 mg/kg/injection, schedule: Q04DX003 (ip), vehicle: Klucel (hydroxypropylcellulose) (HPC)): 102 % of control
T/C (endpoint: mean survival time, dose: 64.0 mg/kg/injection, schedule: Q01DX001 (ip), vehicle: saline): 262 % of control
T/C (endpoint: mean survival time, dose: 64.0 mg/kg/injection, schedule: Q01DX001 (oral), vehicle: saline): 121 % of control
T/C (endpoint: mean survival time, dose: 64.0 mg/kg/injection, schedule: Q01DX001 (sc), vehicle: saline): 120 % of control
T/C (endpoint: mean survival time, dose: 64.0 mg/kg/injection, schedule: Q04DX003 (ip), vehicle: saline): 112 % of control
T/C (endpoint: mean survival time, dose: 100.0 mg/kg/injection, schedule: Q01DX009 (ip), vehicle: saline with Tween-80): 89 % of control
T/C (endpoint: mean survival time, dose: 120.0 mg/kg/injection, schedule: Q01DX001 (ip), vehicle: Klucel (hydroxypropylcellulose) (HPC)): 112 % of control
T/C (endpoint: mean survival time, dose: 128.0 mg/kg/injection, schedule: Q01DX001 (sc), vehicle: saline): 121 % of control
T/C (endpoint: median survival time, dose: 16.0 mg/kg/injection, schedule: Q01DX001 (ip), vehicle: other): 168 % of control

Source: PubChem BioAssay AID256 (DTP/NCI, 2004)
